Data: the RNAGym collection of RNA variant scans (doi:10.1073/pnas.2313332121)
Variants at the background level are over-represented here.

B1: TPR 5TU (parent)
chain: GGAUCUUCUCGAUCUAACAAAAAAGACAAAUCUGCCACAAAGCUUGAGAGCAUCUUCGGAUGCAGAGGCGGCAGCCUUCGGUGGCGCGAUAGCGCCAACGUUCUCAACUAUGACACGCAAAACGCGUGCUCCGUUGAAUGGAGUUUAUCAUG

Variants of: B1
Assay: polymerase ribozyme fitness, log enrichment relative to wild type (log ratio); higher = more active; in vitro selection for triplet polymerase activity
Summary of the method: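 Mutant libraries of both subunits of a heterodimeric triplet polymerase ribozyme were PCR-built, transcribed, and selected once in triplicate, with frozen incubation at −7 °C and capture of gel-excised extended constructs on streptavidin beads before RT-PCR. Illumina sequencing of input and output libraries was filtered to genotypes with ≥10 input reads and ≥1 read per output. Fitness is the logarithm of genotype enrichment over wild-type enrichment, using inverse-variance-weighted replicate averages. The logarithm is base 2.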

Polymerase ribozyme fitness (log ratio), ≤ -4.2:
U4A A19G U130G G133A
C5G A16C A47C A52C C87U A91U G136C
A3G A19U A23G A24G G34C G83U C95A U102G
U4A C57U C85G A97C U151G
A3G C14G C85A C99G U139G U146G
U6A C36U G59C A60C C93G C99G C116A
U4G C76A C85G U127A A142G
C5U U9G U15A A39U A40U A107C C118G A120U G136U
C5U A24U A73C G84C A89C A91C U111G A142C C149U
U6A A24C G48U G50U G71A G88C
U4G A30G A39U A49U C85A
C5A U78G C87G U135A U139A
U4G A21U A26G A28C G62U G81C C95G A98U
A3G U6C U61A C99U
U6A A12U A24U U148G
U6A A16C A24G G50C C57A G58A C85G
U4C U31C A52C G70U C95A C149U
A3U C36G C69A C95G
U4A G50C C85G
C5A C10G C85U C87A C95A
U4C G59U C93G U104G C108A G143C
U6A A24C A26G A28C C93A G128A
U6A A12G U15C G65A C72A C85U C96U G100A A115C
U4A A26U A39U C96U
A3U A23G U45G G46C U56A C85U U90A G92C C93A
U4A A16G G42A G94U
A3U C10G C35U C75U U139A
U4A A30G C75G C95U A120U A121C
A3U A39C U44A U55A G83C C108A
A3G G34A G42A C95G A122U U127C A138U U146G
U4G G50C A52G G80C C85U C116G
C5U A37U U55G C72G A89G U135G U145C
C5G A16U C85U G86A C118G
C5U U33A U55A C75A C96U G136U A147G A150C
A3G A47U G50C G84U G86U
C5A A20C A23U A91G G94A C114U C149U
C5U U15G C27U A47U G48C U55A C76A G84A A122G
C5U A26U U56A G59A C103G A142C U148C
C5G C8G A30G G42U G48C A49G U78G G80A A89G C123G U144A
C5A G11C C14G U33A C43G C87G G88A G92C C114G G140C
A3U A40G A49U U53C G67U C72U G80A C85U U102A
C5U C18U A60C C72A C93A
U4A A20U C79G G88C U104G G124U A138C
A3U A19C A66C C75U U134C A147C
C5A A28C
A3G G71A C85U G86A C93U C114U A150G
U4G A20U C51U G83U A115G G152U
A3U U56A C57G G68A A97U U144A
U4A A52G U90A G128C
C5U A28G A40U U53A C87A C108A G141C
A3U A39U C54G C99G A107C A142G
U6A A40C G46U A60G A91G C99G C105U G143A
C5U A22U G68U G74A G86C A119C G140A
C5A C8U A17G A49U U56A C63U G71C C87A A97G G140A
C5G A52G U56A G81A C85U U90G U135A
A3U A19U A24U A28G A29U C32A A66G U146C
U4G G67C G83C
U4A C8G U15C U33A U109C C116U C131U A147U
U4C G25U U53G G59A G80U G84A C87G A115G C118G
A3U A23G A41C C76G C85U
A3U U7G A24C C35A C36U C125G
U4C A30U C32U C43U G71A C85U C123A
U4C C18U A52G A64U A73U G74C G83A A115C
C5A A24U C85A A98G C116A G128C A137C U148C
A3G U7C A29C U55A G62C G88C
A3U A12G A26U G50U G92A C96U A97U
U4C G46A C76G C131U
A3G U15A U31G C35U U61C C85U U102A A110G A122U G126A
U4A U6A A12C A23C C76A A97G U101G
A3U U13G G140A C149U
C5U U9A U15G A52C U102G C131A
U4A C8G A26G A39U C43A G58U C72A C99U A106G G143C A150C
A3U C69G C85U C93A U104G G141C
C5A A19C G83C C87A G92C G94A U109C G136U
C5U C51A A66C C87U A142U
U4G C8A A16G C36U C57A
U4C A22C A29C C32G G67C G80U G81A A122U
U4C A22C A52G G141A A147C
A3G C32A G50A G59U U78C C95U C105U G143C U151G
C5A A47C G59C C93G
C5U A23U A41C U45G G59A G80A G94C G141U
C5G G59U A60G A97G U139G G141U
C5G C14G U31G A40G G58U G59C G83U C96G C103G C149G
A3U C8A A60C C79G G88C C105A U139G A142G U144C A150C
C5G U7C A29C U33A C54G C85G U134G
A3U C14A A17U A29G C69A
C5G U9C C14A A19C U45A A47C G48A G84C A98G A107G C116A G133U A142C
A3U U55A G74C C85U
C5G G25C G83C A97U U135C G143A
U4A U31G A41C G59U C76A A89C
U4C A23G A29U C32U U53C C93G G141C G143A
U4G C32U G48C G50A U55G A64C G65A C95U U109G
A3U U6C A17G A28G A49C C57U G58A G83C U148A
U6A C10G A20C A28U A49G G84U G92A C108A
A3G A30G U45A G70C G83A
U4C G58C U61A C123G G124C C131G
C5G A23U G88U C93G C96U
A3G U7A A23G A28C A40C G48A G62C C99A G128U
C5G U53A A66U G83A
U4C G48C U55A U56A U78A C85A G141C
A3G U9A C57G U61G C87A G94C C96U U130G C132G
C5A C43G C54G G59A U61G G92C A110C A120G
C5G A26U A41U G42A G70A G88U
C5A C14U C69U C96U G133C A147G
C5U U33G U45G C79G C85A A97C A110C
C5G A12G C18G C35U G58A U77A G92C C95A G143U U144G
C5A A26G G59U A73C C87U C95G
C5A A17C A22U A49C G50A C57G G58A C69A U90A C93U U134C A137C
C5G C14U U56A U61G G86A U90G U134G
A3G G88U C108A
U4G C18G G34C
C5G A28C A47C C85U C129A
A3U G11C G58C A73U A91U
U4A C5A U15A C43U A47C A66G C87A A115G A119G G141C
C5U G50C G62U A66U C93U U101C A138G
C5G A19C A22C C93A C116G A122C C149U
C5A G92A U104G A138C
U4C A49U G65A C96A U135G U144G
C5G C14G A30C A37G U53G C79G G94A
C5U A21U G42C A60G A66C C76G C93A C118U
A3U U7C U77G G84A G117A U148A
A3U C36U A49G G88C C132G A137G G143U
A3U U33G G42U C54G A66G C69G C95A G140C U146C
C5G C35U C95A A122C U146C A150C
U4A A28U C51U U90C C93U A142U U144A U148C
C5A C54A A119C A122G G140U
A3G A49G C75G G88U A91C C93A U101G A107C G136C
U6A A12G C35A G62U G84A G86A C99G U104G U135A
C5G A16C A29G G71A C99A
C5A A23U A29G G84A C103G C116U G128A
C5A U9G G68A A73G G133U U145A
A3U U6A G25A G81A C93U A98C A137G
A3U G34A A66G C93A U135A
U4G C51G U61G A97G
U4A A19U C27G C32G G62U U139C
U4A A19G G50C C72U G143U U145G
U4A U45A C87A A106U A115U C123U G141C
C5G A29U A49C G62C A73C C87A U127G
U4G U6G U44A C54G U134C
U4C G42U G50C U56A G94U A142G
U4C C10G A28U A30G G50U U77A A107G C131A U146G
U4G A12C A23G U33G G42C G68C G71U G84U C108U
U4A G34A G117U A137C A142U
C5G C10U U44A U53A G58U G83U U102G A122U
A3U G11U C35U C38U G74U C87U
A3U U55A G81C A91U U148C G152C
C5U A26G G59C G62C C75G
C5G A91C C114U
C5G G86A C87U C93A C105A A113G G141U
C5U U7C C27U G65C C85A G86A C125U
U6A C51A C76U C93U C103U
U4C A40G G46A C69A A137C G140A
U4A A41G A66C G67A A137U G140U
A3U C18G A37C C75G G88A G128U
A3U C14G A21G U61A G94A U109C A142G
C5G A49U A66U C87U C93U A98U C108G
U4C C51U C57A G100C U148G
U6A A26C G65C U82G G140U
U4G U33G G68C C95A A107G G136A
U4G A60C C76A G92U C95A U145G C149G
A3U U78A
C5A A30U C85G
A3G C36U A49U U55A C75G C96U
A3U C85G C105G A113U
C5A A21U G74U G81C
C5U C54A U61C G65A G88U C95G C103G A115C A119C U135G U144G
C5U A73U G74U A89C C93G C95G
